Values quoted from earlier work as cited in PMC4450067 (PLoS Pathogens, 2015).

Experiments:
[1] = test system: USP10 DUB activity and p53; settings: cited from earlier work
[2] = test system: interaction of G3BP with USP10 (NTF2-like domain of G3BP); settings: cited from earlier work

In the case of `Oc1ccc(/C=C/c2cc(O)cc(O)c2)cc1` [resveratrol], the “effect on USP10 DUB activity and p53” value [1] is listed as “stimulating USP10 DUB activity and stabilization of p53” and the “effect on interaction of G3BP with USP10” value [2] is listed as “can inhibit the interaction of G3BP with USP10”.
